According to the supplement of paper PMC12217912:
The list shows a part of the results. The full chains were built here from the parent and the listed change. Inactive controls read about 0.05.

B1: TEV protease; numbered along this chain (parent)
chain: MGESLFKGPRDYNPISSSICHLTNESDGHTTSLYGIGFGPFIITNKHLFRRNNGTLVVQSLHGVFKVKDTTTLQQHLVDGRDMIIIRMPKDFPPFPQKLKFREPQREERICLVTTNFQTKSMSSMVSDTSCTFPSGDGIFWKHWIQTKDGQCGSPLVSTRDGFIVGIHSASNFTNTNNYFTSVPKNFMELLTNQEAQQWVSGWRLNADSVLWGGHKVFMVKPEEPFQPVKEATQL

Variants of: B1
Assay: raw area under fraction-flipped curve 0-4 h after induction (AUC4h, not background-subtracted), DNA-recorder readout of cleavage of the substrate (dimensionless); higher = more cleavage of the substrate by the protease variant
Conditions: temperature: 34 °C; time window: 0-4 h after rhamnose induction
Protocol: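 In vivo DNA recorder in E. coli TOP10(DE3) ΔrhaA at 34 °C. Each TEVp single-site mutant (parent TEVp 0) is paired with a single-site variant of the 7-mer TEVs (canonical ENLYFQ|S). The substrate sits between flexible linkers in a Bxb1-sfGFP-TEVs-SsrA fusion, so cleavage stabilises Bxb1 and speeds flipping of a recombination array, read by NGS. The value is the raw area under the fraction-flipped curve over 0-4 h after rhamnose induction (AUC4h), with ≥20 reads per time point. It is not background-subtracted; inactive controls average about 0.047.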
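Also: Bxb1 expression induced with 0.2% (w/v) L-rhamnose at OD600 near 0.5, cultures sampled hourly, flipped fraction per protease–substrate barcode pair counted by paired-end Illumina sequencing.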

Variant | area with substrate ENLYAQS | area with substrate ENLYCQS | area with substrate ENLYDQS | area with substrate ENLYEQS | area with substrate ENLYHQS | area with substrate ENLYIQS | area with substrate ENLYKQS | area with substrate ENLYLQS | area with substrate ENLYMQS | area with substrate ENLYNQS | area with substrate ENLYPQS | area with substrate ENLYQQS | area with substrate ENLYRQS | area with substrate ENLYSQS | area with substrate ENLYTQS | area with substrate ENLYVQS | area with substrate ENLYWQS | area with substrate ENLYYQS | area with substrate ENLYGQS
MGESLFKGPRDYNPISSSICHLTNASDGHTTSLYGIGFGPFIITNKHLFRRNNGTLVVQSLHGVFKVKDTTTLQQHLVDGRDMIIIRMPKDFPPFPQKLKFREPQREERICLVTTNFQTKSMSSMVSDTSCTFPSGDGIFWKHWIQTKDGQCGSPLVSTRDGFIVGIHSASNFTNTNNYFTSVPKNFMELLTNQEAQQWVSGWRLNADSVLWGGHKVFMVKPEEPFQPVKEATQL [E25A] | 0.0705 | 0.0906 | 0.0598 | 0.0671 | 0.0769 | 0.143 | 0.0514 | 0.0867 | 0.0916 | 0.063 | 0.0657 | 0.0694 | 0.0739 | 0.055 | 0.0819 | 0.114 | 0.0924 | 0.0575 | –
MGEELFKGPRDYNPISSSICHLTNESDGHTTSLYGIGFGPFIITNKHLFRRNNGTLVVQSLHGVFKVKDTTTLQQHLVDGRDMIIIRMPKDFPPFPQKLKFREPQREERICLVTTNFQTKSMSSMVSDTSCTFPSGDGIFWKHWIQTKDGQCGSPLVSTRDGFIVGIHSASNFTNTNNYFTSVPKNFMELLTNQEAQQWVSGWRLNADSVLWGGHKVFMVKPEEPFQPVKEATQL [S4E] | 0.09 | – | 0.0496 | 0.0697 | 0.0747 | 0.126 | 0.0922 | – | 0.0958 | 0.0716 | 0.0742 | – | 0.0596 | 0.0713 | – | – | 0.113 | 0.0591 | –
MGESLFKGPRIYNPISSSICHLTNESDGHTTSLYGIGFGPFIITNKHLFRRNNGTLVVQSLHGVFKVKDTTTLQQHLVDGRDMIIIRMPKDFPPFPQKLKFREPQREERICLVTTNFQTKSMSSMVSDTSCTFPSGDGIFWKHWIQTKDGQCGSPLVSTRDGFIVGIHSASNFTNTNNYFTSVPKNFMELLTNQEAQQWVSGWRLNADSVLWGGHKVFMVKPEEPFQPVKEATQL [D11I] | 0.061 | 0.0903 | 0.0679 | 0.0698 | 0.0475 | 0.131 | – | – | 0.0847 | 0.07 | 0.0672 | 0.0697 | – | – | – | 0.106 | – | – | 0.0661
MGESLFKGPRDYNPISSSICHLTNESVGHTTSLYGIGFGPFIITNKHLFRRNNGTLVVQSLHGVFKVKDTTTLQQHLVDGRDMIIIRMPKDFPPFPQKLKFREPQREERICLVTTNFQTKSMSSMVSDTSCTFPSGDGIFWKHWIQTKDGQCGSPLVSTRDGFIVGIHSASNFTNTNNYFTSVPKNFMELLTNQEAQQWVSGWRLNADSVLWGGHKVFMVKPEEPFQPVKEATQL [D27V] | 0.0611 | – | 0.052 | 0.065 | 0.0544 | 0.0972 | – | 0.0653 | 0.0655 | 0.0638 | 0.0461 | 0.0656 | 0.0535 | 0.0828 | 0.0498 | – | 0.0604 | – | 0.0656
MGESLFKGPRDYNPISSPICHLTNESDGHTTSLYGIGFGPFIITNKHLFRRNNGTLVVQSLHGVFKVKDTTTLQQHLVDGRDMIIIRMPKDFPPFPQKLKFREPQREERICLVTTNFQTKSMSSMVSDTSCTFPSGDGIFWKHWIQTKDGQCGSPLVSTRDGFIVGIHSASNFTNTNNYFTSVPKNFMELLTNQEAQQWVSGWRLNADSVLWGGHKVFMVKPEEPFQPVKEATQL [S18P] | 0.0855 | – | 0.0407 | 0.0518 | 0.0467 | 0.0853 | 0.0488 | 0.056 | – | 0.0724 | 0.0611 | – | 0.0516 | 0.0648 | 0.0829 | 0.079 | 0.0567 | 0.0742 | 0.0444
MGESLFKGPIDYNPISSSICHLTNESDGHTTSLYGIGFGPFIITNKHLFRRNNGTLVVQSLHGVFKVKDTTTLQQHLVDGRDMIIIRMPKDFPPFPQKLKFREPQREERICLVTTNFQTKSMSSMVSDTSCTFPSGDGIFWKHWIQTKDGQCGSPLVSTRDGFIVGIHSASNFTNTNNYFTSVPKNFMELLTNQEAQQWVSGWRLNADSVLWGGHKVFMVKPEEPFQPVKEATQL [R10I] | 0.0621 | – | 0.0622 | 0.0534 | 0.0712 | – | 0.0514 | – | – | 0.0656 | 0.0576 | 0.0595 | 0.0675 | 0.0822 | – | – | 0.0652 | – | 0.0719
MGESLFKGPRDYNPISSSIEHLTNESDGHTTSLYGIGFGPFIITNKHLFRRNNGTLVVQSLHGVFKVKDTTTLQQHLVDGRDMIIIRMPKDFPPFPQKLKFREPQREERICLVTTNFQTKSMSSMVSDTSCTFPSGDGIFWKHWIQTKDGQCGSPLVSTRDGFIVGIHSASNFTNTNNYFTSVPKNFMELLTNQEAQQWVSGWRLNADSVLWGGHKVFMVKPEEPFQPVKEATQL [C20E] | 0.0508 | – | 0.0419 | 0.0383 | 0.0447 | 0.0322 | 0.0111 | 0.0493 | 0.0444 | 0.0555 | 0.0398 | 0.046 | 0.0493 | 0.0427 | – | 0.0468 | 0.0655 | 0.06 | 0.0415
MGESLFKGPRDYNPISSSTCHLTNESDGHTTSLYGIGFGPFIITNKHLFRRNNGTLVVQSLHGVFKVKDTTTLQQHLVDGRDMIIIRMPKDFPPFPQKLKFREPQREERICLVTTNFQTKSMSSMVSDTSCTFPSGDGIFWKHWIQTKDGQCGSPLVSTRDGFIVGIHSASNFTNTNNYFTSVPKNFMELLTNQEAQQWVSGWRLNADSVLWGGHKVFMVKPEEPFQPVKEATQL [I19T] | 0.0834 | – | – | – | – | 0.112 | 0.182 | – | – | 0.0603 | – | 0.0694 | 0.0538 | 0.0641 | 0.0928 | 0.168 | 0.0725 | – | 0.0708
MGESLFKGPRDYNPISSSQCHLTNESDGHTTSLYGIGFGPFIITNKHLFRRNNGTLVVQSLHGVFKVKDTTTLQQHLVDGRDMIIIRMPKDFPPFPQKLKFREPQREERICLVTTNFQTKSMSSMVSDTSCTFPSGDGIFWKHWIQTKDGQCGSPLVSTRDGFIVGIHSASNFTNTNNYFTSVPKNFMELLTNQEAQQWVSGWRLNADSVLWGGHKVFMVKPEEPFQPVKEATQL [I19Q] | 0.0747 | – | 0.0517 | 0.0664 | 0.0715 | – | 0.0571 | – | 0.0996 | – | 0.0682 | 0.0311 | 0.0537 | 0.0793 | 0.0791 | 0.119 | 0.0599 | 0.0665 | –
